# In the supplement of paper PMC12217912:
# Some of the results follow. Sequences were assembled here from the parent chain. Inactive controls read about 0.05.
# B1: TEV protease; numbered along this chain (parent)
# chain: MGESLFKGPRDYNPISSSICHLTNESDGHTTSLYGIGFGPFIITNKHLFRRNNGTLVVQSLHGVFKVKDTTTLQQHLVDGRDMIIIRMPKDFPPFPQKLKFREPQREERICLVTTNFQTKSMSSMVSDTSCTFPSGDGIFWKHWIQTKDGQCGSPLVSTRDGFIVGIHSASNFTNTNNYFTSVPKNFMELLTNQEAQQWVSGWRLNADSVLWGGHKVFMVKPEEPFQPVKEATQL
# Variants of: B1
# Assay: raw area under fraction-flipped curve 0-4 h after induction (AUC4h, not background-subtracted), DNA-recorder readout of cleavage of the substrate (dimensionless); higher = more cleavage of the substrate by the protease variant
# Conditions: temperature: 34 °C; time window: 0-4 h after rhamnose induction
# Method: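 In vivo DNA recorder in E. coli TOP10(DE3) ΔrhaA at 34 °C. Each TEVp single-site mutant (parent TEVp 0) is paired with a single-site variant of the 7-mer TEVs (canonical ENLYFQ|S). The substrate sits between flexible linkers in a Bxb1-sfGFP-TEVs-SsrA fusion, so cleavage stabilises Bxb1 and speeds flipping of a recombination array, read by NGS. The value is the raw area under the fraction-flipped curve over 0-4 h after rhamnose induction (AUC4h), with ≥20 reads per time point. It is not background-subtracted; inactive controls average about 0.047.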
# 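Further: Bxb1 expression induced with 0.2% (w/v) L-rhamnose at OD600 near 0.5, cultures sampled hourly, flipped fraction per protease–substrate barcode pair counted by paired-end Illumina sequencing.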
Variant,area with substrate ENLYFAS,area with substrate ENLYFCS,area with substrate ENLYFDS,area with substrate ENLYFES,area with substrate ENLYFFS,area with substrate ENLYFHS,area with substrate ENLYFIS,area with substrate ENLYFKS,area with substrate ENLYFMS,area with substrate ENLYFNS,area with substrate ENLYFPS,area with substrate ENLYFRS,area with substrate ENLYFSS,area with substrate ENLYFVS,area with substrate ENLYFWS,area with substrate ENLYFYS,area with substrate ENLYFGS,area with substrate ENLYFLS,area with substrate ENLYFTS
S130W,0.051,0.0764,0.0614,0.0679,0.0671,0.0524,0.0568,0.0615,0.0665,0.0637,0.0574,0.0552,0.0641,0.0534,0.0456,0.0515,,,
T132Q,0.0543,,,0.058,0.0607,0.0436,0.0527,0.0495,0.0548,,0.0533,,0.0611,0.0515,0.0531,0.0375,0.0682,0.075,
F133C,0.049,0.0542,,,,,0.0433,,0.0594,,0.0629,0.0686,0.0554,,,,,,
F133V,0.0561,0.047,,0.0691,0.0846,0.0514,0.058,0.0609,0.0756,0.069,0.0672,0.0288,0.0627,0.059,0.0642,0.062,0.0672,0.0624,
S135G,0.058,0.0486,0.0202,0.0537,0.0659,0.0548,0.0439,,,0.0515,0.062,0.047,0.0613,0.0566,0.0501,0.0508,,,0.0741
D137Y,0.063,0.0464,,0.0639,,0.0628,0.0538,,0.0633,0.0672,0.0697,,,0.0522,0.0509,0.0526,,0.05,0.0496
I139P,0.0572,,0.07,0.0314,0.0778,0.0554,0.0634,0.0568,0.0738,0.0674,0.0509,,,0.0521,0.0689,,,,
W141C,0.0594,0.0534,0.0466,0.0695,0.0642,0.0453,0.0504,0.052,0.0627,0.0511,0.0635,0.0477,,0.0496,,0.0682,,,0.0467
K142P,0.0575,0.0428,,0.0589,0.0636,0.0546,0.0629,0.0575,0.0655,0.0493,0.0614,0.0547,0.0565,0.0721,0.0609,0.0605,0.0576,,0.062
H143D,0.0494,0.0435,0.0416,0.0595,0.0606,0.0602,0.0594,0.0564,0.0571,,0.0573,0.0467,,0.0634,,0.0609,,0.0515,
I145Q,0.068,0.0481,0.0457,0.0517,0.0553,0.0422,0.0541,0.0651,,0.0548,0.0589,0.049,0.0243,,0.0377,0.0548,,,0.0539
Q146I,0.0539,,,,,,0.0603,,0.0836,0.0957,0.0567,,0.0531,,0.054,0.0587,0.0531,0.0651,
T147G,0.0641,,,0.0763,0.0686,,0.0555,0.0534,0.0627,0.0637,,0.0673,,,,,0.0656,,0.0792
T147I,0.06,,0.0374,0.052,0.0705,,0.0534,0.043,0.0627,0.0579,0.0505,0.0334,0,,0.0562,0.0603,,,0.0532
T147P,0.0531,0.0565,,0.0637,0.0906,0.0587,0.0587,,0.0557,0.0605,0.0594,0.068,0.0672,0.0675,0.0592,0.0576,,0.0762,0.062
K148W,0.0573,0.0662,0.0617,0.0626,,,0.0549,0.0574,0.064,0.0684,0.063,0.0628,0.0589,,,,0.0539,,0.0585
G150P,0.0352,0.0696,0.0614,0.0575,0.0518,0.062,0.0532,0.0625,0.0681,0.0588,0.0576,0.0542,,,,0.0585,0.0414,0.0769,0.0601
Q151G,0.0622,,0.0539,0.0611,,,0.0572,,0.0445,,0.062,,0.0549,,,0.0504,0.0728,0.0605,0.0566
S154C,0.0897,0.0675,0.0739,0.0602,0.0699,0.0717,0.0656,0.0618,0.0708,0.0642,0.0515,,0.0568,0.0581,0.0556,0.0561,0.0521,0.0609,0.0554
S154L,0.0837,0.0452,0.0738,0.0644,,,0.0485,0.0459,0.0859,0.0715,,0.0631,,,,0.0562,0.0903,0.047,0.0558
S154M,0.056,0.0657,,0.072,0.081,0.0617,0.0523,0.055,,0.0917,0.0658,,,0.0642,0.0749,,,,0.0557
S154R,0.0636,,0.0437,0.0624,0.0683,0.0578,0.0485,0.0612,0.0645,0.0701,0.0581,0.0609,,0.0669,,,,,0.0538
P155H,0.071,,0.0412,0.0489,0.0562,0.0517,0.0458,0.0566,0.0566,,0.049,0.0549,0.0536,0.051,0.0483,0.0479,,0.0532,
S158D,0.0511,0.0496,0.0558,0.0596,0.0664,0.0492,0.05,0.0462,0.0518,,0.0586,0.0604,,,0.0504,0.0347,,,
R160P,0.0562,,0.0617,0.0439,0.074,0.0537,0.0523,0.0617,0.0481,0.0691,0.0622,0.0586,,,0.0591,0.0515,,0.0595,0.0761
